PubChem BioAssay AID1508623 (National Center for Advancing Translational Sciences (NCATS), 2021)
The campaign covered roughly 48,000 compounds. About 450 (0.94%) were called active. About 19% were inconclusive and are not listed. Calls follow the shape of the dose curve; as a rule, active = well fitted inhibition curve with a large enough effect; inconclusive = small, poorly fitted or top-dose-only effect; inactive = no such curve, though single readings can be large or run the other way. This is one part of the list.

Assay: Primary qHTS for Identification of Small Molecule Inhibitors of Huntingtin Promoter Activity; also: nearly all actives have a fitted effect of over 50% in size
Settings: HEK293 HTT promoter firefly luciferase reporter (activity 0% = vehicle and -100% = no light), 24 h; series mostly up to 57.5 µM; activity change, negative = inhibition: at the top concentration
How it was run: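 Firefly luciferase signal from promoter-reporter HEK293 cells was scaled between vehicle (0%) and zero RLU (-100%). Compounds were tested at final concentrations of up to 57.5 uM over 24 h at 37 degrees C. PTC124 at 50 uM final served as control inhibitor.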

Activity change, negative = inhibition, inactive:
CCOc1ccc(CCNC(=O)c2cnc3c(-c4ccccc4)c(C)nn3c2C)cc1OCC -14.7%
Cc1cccc(NC(=O)CN2C(=O)CCc3ccccc32)c1C -26.7%
COc1ccc(N2CCN(c3oc(/C=C/c4cccc(OC)c4)nc3C#N)CC2)cc1 -9.42%
CC(C)c1ccc(OCC(=O)Nc2cc(-c3nc4ncccc4o3)ccc2Cl)cc1 -3.61%
O=[N+]([O-])c1ccc(C(c2sc3nc(-c4ccco4)nn3c2O)N2CCC3(CC2)OCCO3)cc1 (stereo not given) -13.8%
COc1ccccc1CNC(=O)C(C)n1c(=O)cc(C(F)(F)F)c2c(C)nn(C)c21 (stereo not given) 21%
COc1cc(C2CC(=O)Nc3cc4c(cc32)OCCO4)cc(OC)c1O (stereo not given) -26.3%
Nc1ccn(C2CO[C@H](CO)O2)c(=O)n1 (stereo not given in full) 4.56%
Cc1oncc1C(=O)Nc1ccc(C(F)(F)F)cc1
O=c1[nH]c2cc(C(F)(F)F)c(N3CCOCC3)cc2n(CP(=O)(O)O)c1=O -8.23%
CCCCC(=O)Nc1ccc(OCc2cc(=O)n3ccc(C)cc3n2)cc1 -0.235%
CCCCN(CCCC)c1nc(-c2ccccc2)nc2ccccc12 -23.3%
COc1ccc(C(Cl)=C(c2ccc(OC)cc2)c2ccc(OC)cc2)cc1 0.64%
CCC(=O)Nc1ccc(C)cc1-c1nc2ccccc2n(Cc2ccccc2)c1=O 3.59%
CCN(C(=O)c1cc2c(Cl)nc3ccc(C)cc3c2s1)c1cc(OC)ccc1OC -15.8%
Cc1oc(-c2cccc(Cl)c2)nc1CSCC(=O)O -29.4%
CC1(c2ccccc2)CC(C)(C)N(C(=O)c2ccccc2Cl)c2ccccc21 (stereo not given) -28.3%
COc1ccccc1C(=O)Nc1c(C(=O)Nc2ccc(C)cc2)oc2ccccc12 -4.19%
CCOC(=O)c1c(N)sc2c1CCN(Cc1ccccc1)C2 -5.09%
COc1ccccc1CNC(=O)c1cc(-c2ccccc2)n[nH]1 13%
Cc1ccc(N2C(=O)C(CC(=O)Nc3ccccc3)N(CCC3=CCCCC3)C2=O)cc1 (stereo not given) -0.321%
Cc1ccc2nc(NC(=O)CSc3ncc(C(=O)Nc4ccccc4)c(=O)n3C)sc2c1 6.22%
CCOc1ccccc1N(CC)C(=O)c1cc2ccc3cccnc3c2[nH]1 -13.9%
Cn1c2ccc(F)cc2c2nnc(SCCN3CCCCC3)nc21 -3.21%
CCOc1ccccc1NC(=O)CN1C(=O)C(=O)c2ccccc21 -11.5%
CC(C)NC(=O)c1sc2ncccc2c1-n1cccc1 6.17%
CCOc1ccc(CCNC(=O)c2sc3nc4n(c(=O)c3c2C)CCCC4)cc1 -7.42%
O=C(O)Cn1nc(N2CCN(c3ccccc3)CC2)ccc1=O 2.42%
Cc1sc2c(c1C)c(=O)n(Cc1ccccc1)c(=O)n2CC(=O)Nc1cccc(Cl)c1 -22.5%
CCOC(=O)Cn1cnc2c(cnn2-c2ccc(C)c(C)c2)c1=O 56.5%
Cc1ccccc1C(=O)NCc1ccc2c(c1)CCN2C(=O)c1ccc(F)cc1 -5.48%
Cc1nn2c(=O)cc(COC(=O)COc3ccccc3C)nc2s1 -11.5%
O=C(O)C1=CC(c2ccc(Br)cc2)n2ncnc2N1 (stereo not given) -4.67%
CCOC(=O)[C@H](CCc1ccccc1)N[C@@H](C)C(=O)N1Cc2ccccc2C[C@H]1C(=O)O 3.5%
CCOc1ccc(C(=O)c2cn(CC(=O)Nc3ccc(C)c(C)c3)c3ccc(OCC)cc3c2=O)cc1 -24.2%
COc1ccc(N2CC(NC(=O)c3ccc(S(=O)(=O)N4CCOCC4)cc3)CC2=O)cc1 (stereo not given) -4.9%
COc1ccccc1NC(=O)C1CCN(c2ncnc3c2nc2n3CCCCC2)CC1 -22%
CCS(=O)(=O)c1nc(S(=O)(=O)c2ccc(C)cc2)c(NCc2ccccc2Cl)s1 -24.4%
CCOC(=O)CSc1ncnc2c1c(-c1ccccc1)cn2-c1ccc(OC)cc1 21.2%
COc1ccc(OCC(=O)N2CCN(C(=O)c3ccc(OC)cc3)CC2)cc1 -7.09%
CCOc1ccc(Nc2nc(Nc3ccc(OCC)cc3)nc(N3CCOCC3)n2)cc1 -6.86%
COc1ccc(CCNC(=O)CCCn2c(=O)c3cccn3c3ccc(F)cc32)cc1OC -7.74%
O=C(COc1ccc(Br)cc1)Nc1cccc2cccnc12 -1.91%
COC(=O)c1ccc(Cl)cc1NC(=O)N1CCC(CN2CCC(C)CC2)CC1 -15%
CCc1cccc(NC(=O)c2coc(=O)c3ccccc23)c1 -20.7%
COc1cccc(NC(=O)c2oc3ccccc3c2NC(=O)Cc2cccc(C)c2)c1 -21.6%
Cc1cn2c(=O)cc(COC(=O)C(C)Oc3ccccc3)nc2s1 (stereo not given) -19.1%
CCc1ccc(-n2nc(CO)c(C(=O)NCCCCc3ccccc3)n2)cc1 -5.76%
O=C(NCc1ccc(Cl)cc1)c1cc(-c2ccc(F)cc2)on1 4.17%
CCOc1ccc(S(=O)(=O)n2nc(C)c(S(=O)(=O)N3CCCCC3)c2C)cc1 -7.6%
O=C(Nc1ccc(Cl)cc1C(F)(F)F)c1cc(S(=O)(=O)N2CCOCC2)ccc1F -16.3%
CC(C)(C)OC(=O)N1CCC(c2c(C(=O)NCc3ccco3)cnn2-c2ccccc2Cl)CC1 -7.79%
Cc1nn(CCCC(=O)NCc2ccccc2)c(=O)c2cc3sccc3n12 -9.89%
COC(=O)c1ccccc1NS(=O)(=O)c1ccc2c(c1)CCCN2C(C)=O -21.1%
COc1ccc(C(=O)Nc2cc3c(cc2N2CCCC2)n(C)c(=O)c(=O)n3C)cc1OC -26.7%
N/C(=N\N=C\c1ccc(Cl)cc1)N/N=C/c1ccc(Cl)cc1 1.91%
CCCC(=O)n1nc(-c2cccnc2)nc1NCc1ccc(OC)cc1 -11.8%
Cc1cccc(C)c1NC(=O)Cn1c(=O)n(Cc2ccc3c(c2)OCO3)c(=O)c2oc3ccccc3c21 -4.42%
CCOc1cc(C(=O)Nc2ccc(-c3nc4ccccc4s3)cc2Cl)cc(OCC)c1OCC 31.7%
CCOc1ccc(OCC)c(NC(=O)C(NS(=O)(=O)c2cccs2)c2ccccc2)c1 (stereo not given) -20%
COc1ccc(C(=O)Nc2cc(S(=O)(=O)c3ccc(Cl)cc3)c(O)c(C)c2C)cc1 11.8%
O=C(Nc1ccc(Br)cc1)C(Cc1ccccc1)NS(=O)(=O)c1cccc2nsnc12 (stereo not given) -17.4%
COc1ccccc1NC(=O)Cn1nc(-c2ccc(C)cc2)c2c(c1=O)CCCC2 -22.1%
Cc1ccc(CNC(=O)c2c(C)oc3nc(C)nc(N4CCOCC4)c23)cc1 -4.41%
CCc1ccc(-n2nc3cc(C)c(NC(=O)c4cc(OC)cc(OC)c4)cc3n2)cc1 7.45%
